# From PubChem BioAssay AID1460 (National Center for Advancing Translational Sciences (NCATS), 2008)
# “And” between values parts separate entries of the source, which are not always exact repeats. Identical values can stand only once. The campaign covered roughly 270,000 compounds. About 5,800 (2.1%) were called active. Inconclusive results (about 16%) are left out. Calls follow the shape of the dose curve; as a rule, active = well fitted inhibition curve with a large enough effect; inconclusive = small, poorly fitted or top-dose-only effect; inactive = flat fitted curve, though single readings scatter. This is a selection; strong and weak results do not stand in their true shares.
# Biological target: Microtubule-associated protein tau (Homo sapiens) (UniProt P10636)
# UniProt P10636, sequence (P10636 whole entry, looked up): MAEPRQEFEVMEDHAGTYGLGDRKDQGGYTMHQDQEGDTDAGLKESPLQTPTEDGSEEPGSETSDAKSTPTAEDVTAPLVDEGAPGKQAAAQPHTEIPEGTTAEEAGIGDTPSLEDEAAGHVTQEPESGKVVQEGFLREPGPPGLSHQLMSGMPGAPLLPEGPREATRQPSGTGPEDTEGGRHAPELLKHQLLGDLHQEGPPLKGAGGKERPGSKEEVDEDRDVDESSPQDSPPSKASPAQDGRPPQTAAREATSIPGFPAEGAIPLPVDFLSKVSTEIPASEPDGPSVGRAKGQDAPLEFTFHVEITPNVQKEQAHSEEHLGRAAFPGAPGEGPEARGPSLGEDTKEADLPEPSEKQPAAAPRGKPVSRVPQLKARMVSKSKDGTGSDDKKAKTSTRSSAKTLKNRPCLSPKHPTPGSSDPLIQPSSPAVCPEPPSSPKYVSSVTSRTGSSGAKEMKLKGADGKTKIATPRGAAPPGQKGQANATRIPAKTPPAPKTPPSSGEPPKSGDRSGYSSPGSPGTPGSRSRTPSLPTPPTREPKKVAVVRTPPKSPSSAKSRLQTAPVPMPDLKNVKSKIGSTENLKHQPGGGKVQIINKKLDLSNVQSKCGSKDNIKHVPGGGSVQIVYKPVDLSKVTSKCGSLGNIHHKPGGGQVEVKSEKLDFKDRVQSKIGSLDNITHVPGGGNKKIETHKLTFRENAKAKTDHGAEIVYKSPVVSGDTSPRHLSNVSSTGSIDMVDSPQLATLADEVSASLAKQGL
# Assay: qHTS for Inhibitors of Tau Fibril Formation, Thioflavin T Binding; also: nearly all actives have a fitted effect of over 55% in size
# Settings: recombinant tau K18 P301L (four-repeat tau fragment), heparin-induced fibrillization, ThT fluorescence; series mostly up to 57.4 µM; activity, negative = inhibition: at the top concentration
# Source text: NIH Molecular Libraries Probe Production Network [MLPCN]
# NIH Chemical Genomics Center [NCGC]
# Assay Provider: Carlo Ballatore, University of Pennsylvania
# The microtubule-associated protein tau is an abundant protein in the axons of neurons that stabilizes microtubules. With its ability to modulate microtubule dynamics, tau contributes directly or indirectly, to key structural and regulatory cellular functions. Particularly important is the influence tau exerts on axonal transport, which allows signaling molecules, trophic factors and other essential cellular constituents to travel along the axons. Under pathological conditions, tau becomes sequestered into insoluble aggregates called neurofibrillary tangles. This phenomenon is believed to have pathological consequences by promoting axonal transport deficits that ultimately lead to synaptic dysfunction and neuronal loss. To identify inhibitors of tau aggregation, a heparin-induced tau fibril formation assay was used that employed a recombinantly expressed fragment of tau, K18 (Q242-E372), bearing a P301L mutation (Gustke et al. 1994; Hong et al. 1998). This assay monitors tau fibrillization by Thioflavin T (ThT) fluorescence.
# Gustke, N., B. Trinczek, et al. (1994). "Domains of tau protein and interactions with microtubules." Biochemistry 33(32): 9511-22.
# Hong, M., V. Zhukareva, et al. (1998).
# Li, W. and V. M. Lee (2006).
# von Bergen, M., S. Barghorn, et al. (2001). "Mutations of tau protein in frontotemporal dementia promote aggregation of paired helical filaments by enhancing local beta-structure." J Biol Chem 276(51): 48165-74.
# NCGC Assay Protocol Summary:
# For screening, 2 uL/well human K18 P301L (15 uM unlabeled and 0.24 uM Alexa 594-labeled tau, final concentrations) in reagent buffer (100 mM sodium acetate pH 7) was dispensed into black solid 1536-well plates (Grenier) using a solenoid-based dispenser. Following transfer of 23 nL compound or DMSO vehicle by a pin tool, 2 uL/well heparin (20 uM final concentration) in reagent buffer was added and the plate centrifuged 15 s at 1000 RPM. Plates were incubated 6 hr at 37 C and then 1 uL/well ThT (30 uM final concentration) was added. After a 1 hr ambient incubation, the plates were read by an Envision (Perkin Elmer) to monitor ThT fluorescence (450/8 nm excitation and 510/23 nm emission).
# Keywords: NIH Roadmap, MLPCN, MLI, MLSMR, NCGC, qHTS, tau, tauopathies, Alzheimer's disease, fibril, neurodegeneration, aggregation
# % is scaled to controls: 0 for no effect and ±100 for the full control effect; potency is read from the fitted curve at half-maximal effect.
Compound,"activity, negative = inhibition",Potency
CC1(OC(=O)CCc2ccccc2)C(=O)C=C2C=C(c3ccc(C#N)cc3)N(CC3CC3)C=C2C1=O (stereo not given),inactive: -5.87% [at 11.5 µM],
Cc1cccc(COC[C@H](Cc2ccccc2)N2CCN(C(=O)c3cccc(Cl)c3)CCC2=O)c1,inactive: -12.2%,
CCc1cc(SC#N)cc(C)c1N,,active: 14.1 µM
CC(=O)OC/C=C(C)/C=C/C=C(C)/C=C/C1=C(C)CCCC1(C)C,inactive: -7.27%,
Cc1ccc2[nH]c(=O)c3cc(C(=O)N(CCCOC(C)C)Cc4ccco4)sc3c2c1,inactive: -13.7%,
Nc1nonc1C(=O)NCCN=Cc1cc(Cc2ccccc2)cc(Br)c1O,,active: 28.2 µM
N=C1C=CC=C2C1=NC1(CCCCC1)N2O,,active: 25.1 µM
Oc1ccccc1N=Nc1nc(-c2ccccc2)c(-c2ccccc2)[nH]1,,active: 4.47 µM
Cc1ccc(S(=O)(=O)N2CCC(=O)N(CCOCc3ccc(C(F)(F)F)cc3)CC2)cc1,inactive: -4.47%,
COC(=O)CCC(=O)OC1(C)C(=O)C=C2C=C(c3ccc(C#N)cc3)OC=C2C1=O (stereo not given),inactive: -2.42%,
CN(C)CCCN1c2ccccc2CCc2ccc(Cl)cc21,,inactive
O=C(c1cc2c(s1)-c1ccccc1OC2)N1CCN(c2ccccc2)CC1,inactive: 0.866%,
COc1cc2c(cc1O)CC[C@@H]1[C@@H]2CC[C@]2(C)[C@@H](O)CC[C@@H]12,inactive: -11.8%,
COc1ccc(-c2[nH]c(-c3cccc(OC)c3)nc2SCC(=O)NC2CCCC2)cc1,inactive: -3.28%,
Clc1ccc(-c2ccc(/C=N/Nc3nncc(-c4ccccc4)n3)o2)cc1,,active: 2.24 µM
N[C@H]1CCN(O)C1=O,inactive: -15.9%,
CC(=O)OC1CC2C(C)(C)C(=O)C=C[C@]2(C)C2CC[C@@]3(C)C(c4ccoc4)OC(=O)C4O[C@@]43[C@]12C (stereo not given in full),inactive: -15.4%,
COc1ccc(N2C=C3C(=O)C(C)(OC(=O)CCc4ccccc4)C(=O)C=C3C=C2c2ccc(C#N)cc2)cc1 (stereo not given),inactive: -3.14% [at 11.5 µM],
Oc1cc(-c2ccccc2)c2ccccc2c1,,active: 14.1 µM
CC(N)(Cc1ccc(O)cc1)C(=O)O (stereo not given),inactive: -0.293%,
Cc1cc(-c2ccccc2)nc(N/N=C/c2ccc([N+](=O)[O-])cc2)n1,,active: 7.08 µM
COc1ccc(/C=N/Nc2ccc(C(=O)O)cc2)cc1Br,,active: 7.08 µM

Compound,"activity, negative = inhibition",Potency
CC(C)C[C@H](NC(=O)[C@@H](O)[C@H](N)Cc1ccccc1)C(=O)O,,inactive
CCCCCCN(CCCCCC)C(=O)Cc1c(-c2ccc(F)cc2)[nH]c2ccccc12,,inactive
CC(=O)NNC(=O)N1Cc2ccccc2Oc2ccc(Cl)cc21,inactive: -12.2%,
COC(=O)[C@@H]1CC[C@H](C)[C@@H](c2ccc(C)cc2)N1C(=O)c1ccc(/C=N\O[C@@H](C)c2cn([C@H](CO)Cc3ccccc3)nn2)cc1,inactive: -5.22% [at 11.5 µM] and inactive: -10.4% [at 11.5 µM],
Cc1ccc2[nH]c(-c3cccc(N)c3)cc2c1,,active: 10 µM
CN(C)c1ccc(/C=N/NC(=O)c2ccc(Cn3cc(Br)cn3)o2)cc1,,active: 12.6 µM
C=C1/C(=C\C=C2/CCC[C@]3(C)[C@@H]([C@H](C)CCCC(C)(C)O)CC[C@@H]23)C[C@@H](O)C[C@@H]1O,inactive: -3.33%,
CC(C)(C)[C@@H]1C=C(C(=O)N2CCN(Cc3ccccc3)CC2)O[C@H](OCCCCO)C1,inactive: -3.15%,
C/C(=N\NC(=O)c1cc2ccccc2cc1O)c1ccc2c(c1)OCO2,,active: 7.08 µM
CCOC(=O)CN1C(=O)N[C@@H](c2ccc(Br)cc2)C(C(C)=O)=C1C,,inactive
CNCCC=C1c2ccccc2CCc2ccccc21,,inactive
Cc1ccc2scc(N3CCc4ccccc4C3)c(=O)c2c1,,active: 7.08 µM
CC1OC(OCC2OC(Oc3c(-c4ccc(O)c(O)c4)oc4cc(O)cc(O)c4c3=O)C(O)C(O)C2O)[C@@H](O)C(O)C1O (stereo not given in full),inactive: -13.3%,
Cc1cc(C)c2oc(C(=O)Nc3ccc(S(=O)(=O)N4CCC(C)CC4)cc3)cc(=O)c2c1,inactive: 3.17%,
FC(F)(F)c1cc(CO[C@H]2CCCN[C@H]2c2ccccc2)cc(C(F)(F)F)c1,inactive: -10.4%,
COC(=O)C1=C(C(=O)OC)[C@@H]2N(C)c3ccccc3[C@@]23C[C@@H](C(=O)OC)N(C(=O)c2cc(C)oc2C)C3=N1,inactive: -9.6% [at 11.5 µM],
CCC(=O)/C=C1\Sc2ccccc2N1CC,inactive: 0.567%,
FC(F)(F)c1ccc(C2[C@H]3CN(Cc4cccnc4)[C@H](c4ccccc4)C34CC2(c2ccccc2)C4)cc1 (stereo not given in full),inactive: -4.34%,
O=C(Nc1cccnc1)c1cc(-c2ccc(Cl)cc2)on1,inactive: -10.4%,
CCCCCCCCCCCCCCC[C@@H](O)[C@@H](N)CO,,inactive
CCC1=C(OC(=O)N(CC)CC)N2C(=O)OC(=NCCc3c[nH]c4ccccc34)[C@]2(C)[C@H]2C1=CC[C@H]1C(=O)N(CC)C(=O)[C@H]12,inactive: -5.72%,
Cc1cc(C)c2c(c1)/C(=C/C(=O)c1ccc(Br)s1)C(=O)N2,,active: 28.2 µM

Compound,"activity, negative = inhibition",Potency
Nc1ccccc1C#CCCCCO,inactive: -8.65%,
CCCCC1=CC2=CC(=O)C(C)(OC(=O)CC)C(=O)C2=CN1CCN1CCOCC1 (stereo not given),inactive: 4.47% [at 11.5 µM],
CC(=O)C1=C(C)N(Cc2ccccc2)C(=O)N[C@H]1c1ccco1,inactive: -10.5%,
COc1cc2c(cc1OC)C1C(=O)c3ccc4c(c3OC1CO2)C=CC(C)(C)O4 (stereo not given),inactive: -20.8%,
O=C1c2c(O)cc(O)cc2OC(c2ccc(O)c(O)c2)C1O (stereo not given),inactive: -3.18%,
CC1=CC(C)(C)n2c(O)c(N=N)c3c(C)c(C)cc1c32,,active: 25.1 µM
O=C(NCCc1c[nH]c2ccccc12)[C@H]1C[C@@H]1[C@H](NP(=O)(c1ccccc1)c1ccccc1)c1ccccc1,inactive: -18%,
O=C(CCSCc1cccc(Cl)c1)NCCc1ccc(Cl)cc1,inactive: 1.04%,
O=C(O)/C=C/C(=O)Nc1ccc(-c2ccccc2)cc1,inactive: -10.5%,
Cc1cccc(N2CCN(C(=O)C(C)n3nc(C)n4c(cc5occc54)c3=O)CC2)c1C (stereo not given),inactive: -17.5%,
CC/C(=C(\c1ccccc1)c1ccc(OCCN(C)C)cc1)c1ccccc1,,inactive
CCO[C@@H]1OC(C(=O)O)=C[C@H](C2CCCCC2)[C@H]1CCCO,inactive: 0.0576%,
COc1ccc(COc2cc(-c3cccc(OC)c3)nc3ccc(NC(=O)c4ccc(C)cc4)cc23)cc1,inactive: -5.72%,
CC1(C(=O)NCCc2c[nH]c3ccccc23)C=CCN1C(=O)c1ccccc1 (stereo not given),inactive: -2.72%,
COc1ccc(NC(=O)CN(C)S(=O)(=O)c2ccc3c(c2)CCC(=O)N3)c(OC)c1,inactive: -14.4%,
COc1cc(/C=C2\SC(=S)N(Nc3ccccc3)C2=O)ccc1O,,active: 11.2 µM
Cc1ccc(S(=O)(=O)N2CCC(=O)N([C@H](COCc3ccc(C(F)(F)F)cc3)Cc3ccccc3)CC2)cc1,inactive: -13.8%,
CC[C@@H]1/C=C(\C)C[C@H](C)C[C@H](OC)[C@H]2O[C@@](O)(C(=O)C(=O)N3CCCC[C@H]3C(=O)O[C@H](/C(C)=C/[C@@H]3CC[C@@H](O)[C@H](OC)C3)[C@H](C)[C@@H](O)CC1=O)[C@H](C)C[C@@H]2OC,inactive: -9.48%,
COc1ccc2c(c1)C(=NN)c1cc(OC)ccc1-2,,active: 10 µM
C#CCCCO/N=C1/C[C@@H](O)[C@@H](O)[C@@H]2[C@@H]3C(=O)N(Cc4ccccc4)C(=O)[C@H]3CC[C@H]12,inactive: 5.28% [at 11.5 µM],
COc1ccc2cc1Oc1ccc(cc1)CC1c3c(cc4c(c3Oc3cc5c(cc3OC)CCN(C)C5C2)OCO4)CCN1C (stereo not given),inactive: -20.5%,
COC(=O)[C@H](COC(C)(C)C)NC(=O)O[C@H]1C(=O)c2cc(OC)ccc2O[C@@H]1c1ccc(OC)c(Br)c1,inactive: -7.92%,

Compound,"activity, negative = inhibition",Potency
O=C1CCc2ccc(OCCCCN3CCN(c4cccc(Cl)c4Cl)CC3)cc2N1,inactive: -17.3%,
O=C(NCCO)/C(=C\c1ccc2c(c1)OCO2)NC(=O)c1ccc(Br)cc1,inactive: -4.81%,
CN1CCC(=C2c3ccccc3CCc3sccc32)CC1,,inactive
COC(=O)CCC(=O)OC1(C)C(=O)C=C2C=C(C3CC3)N(C3CCCCC3)C=C2C1=O (stereo not given),inactive: -6.11% [at 11.5 µM],
COc1ccc(N2C(=O)C(Cl)=C(N3CCCC(C)C3)C2=O)cc1 (stereo not given),,active: 15.8 µM
COC(=O)[C@H](Cc1ccccc1)NC(=O)[C@@]1(C)C[C@@H]1[C@@H](NC(=O)OCc1ccccc1)c1ccccc1,inactive: -16.3%,
C#CCN(C)CCCOc1ccc(Cl)cc1Cl,inactive: -14.2%,
Oc1cc2c(c(Cl)c1O)CCNCC2c1ccccc1 (stereo not given),,inactive
CC(C)=CCC/C(C)=C/CC/C(C)=C/CC/C(C)=C/CO,inactive: -24.5%,
COc1ccccc1N1CCN(CCCNc2cc(=O)n(C)c(=O)n2C)CC1,,inactive
CCSc1ncc(/C=N/Nc2ccc(Cl)cc2)n1C,,active: 7.94 µM
COc1ccc(N/C=C\C(=O)c2ccc(C)cc2)cc1OC,,active: 10 µM
COc1ccc(CCCc2nnc(SCC(=O)Nc3cccc(C)c3)o2)cc1,inactive: -16.1%,
CC1(C)Oc2ccc3ccc(=O)oc3c2C[C@H]1O,inactive: 3.12%,
CC[C@@H](C)[C@H]1O[C@]2(CC[C@@H]1C)C[C@@H]1C[C@H](C/C=C(/C)[C@H](O[C@@H]3C[C@H](OC)[C@H](O[C@@H]4C[C@H](OC)[C@@H](O)[C@H](C)O4)[C@H](C)O3)[C@@H](C)/C=C\C=C3CO[C@@H]4[C@H](O)C(C)=C[C@@H](C(=O)O1)[C@]34O)O2 (tested in a mixture with another compound),inactive: 4.76%,
CC1CCCC(C)N1C(=O)Cn1cc(/C=C2/C(=O)Nc3ccccc32)c2ccccc21 (stereo not given),,active: 14.1 µM
CC(=O)N1CCN(c2ccc(NCc3ccc(C(C)C)cc3)cc2)CC1,,active: 12.6 µM
CCCCCC(=O)O[C@@]1(C(C)=O)CCC2C3CCC4=CC(=O)CC[C@@]4(C)C3CC[C@]21C (stereo not given in full),inactive: -17.6%,
Cc1cc(C)c(NC(=O)Cn2cnc3c(oc4ccccc43)c2=O)c(C)c1,inactive: -8.95%,
